The chains are these.
B1: LINE1-mini (parent)
chain: GGCAGAGCUCAACACAGCGUGGCAAAGUGGCUGUGGCUAGACUGCC

Consider 56 variants from the RNAGym collection of RNA variant scans (doi:10.7554/elife.90254).

The source gives no read counts; variants with many changes may rest on few reads.

The variants in this data set derive from B1. In words: self-cleavage, relative activity (ratio to wild type); higher = more cleavage; in vitro, sequencing; the parent is a self-cleaving ribozyme.
Consider GGCAGAGAUCAACACAGCGUGGCCAAGUGGGUGUGGCUAGACUGCC [C8A A24C C31G], for which the self-cleavage worked out at 0.25.

For the variant GGCAGAGAUGAACACAACGUGGCUAAGUGGCUGUGGCUAGACUGCC [C8A C10G G17A A24U], the self-cleavage was 0.02.

With GGCAGAGAUCAACACAGCGUGGCAUAGUGGCUGUUGCUAGACUGCU [C8A A25U G35U C46U], the self-cleavage amounted to 0.04.

Regarding GGCAGAGAUCAAAACAGCGUGGCAAAGUGGCUAUGGCUAGACAGCC [C8A C13A G33A U43A], the self-cleavage was 0.35.

Consider GGCAGAGAUCAAAACACCGUGGCAAUGUGGCUGUGGCUAGACUGCC [C8A C13A G17C A26U], for which the self-cleavage stood at 0.25.

With GGCAGAGAUUAACACAGCGUGGCAAAGUGGCUGUGUCUAGACUGCC [C8A C10U G36U], the self-cleavage came out at 0.02.

As to GGCAGAGAUAGACAGAGCGUGUCAAAGUGCCUUUGGCUAGACUGAC [C8A C10A A11G C15G G22U G30C G33U C45A], the self-cleavage was 0.

Take GGCAGAGAUCAACACCGCGUGGCAAAGUGGCUGUGGCUUGACUGCC [C8A A16C A39U]: the self-cleavage amounted to 0.05.

As to GGCAGAGAUUAACAAAGCGUGGCAAAGUGACUGUGGCUAGUCUGCC [C8A C10U C15A G30A A41U], the self-cleavage worked out at 0.11.

Take GGCAGAGAUCAACACGGCGUGGCAAAAUGGCUGUGGCUAGACUGCC [C8A A16G G27A]: the self-cleavage worked out at 1.03.

In the case of GGCAGAGAUCAACACUGCGUGGCAAAGUGGCUGUGGCUCGACUGCC [C8A A16U A39C], the self-cleavage was determined as 0.09.

For the variant GGCAGAGAUCAAAACAGCUUGGCAAAGUGGCUGUGGCUAGACUGCC [C8A C13A G19U], the self-cleavage stood at 0.22.

For the variant GGCAGAGAUCAAGACAGAGUGGAAAAGUGGGUGUGGCUAGACUACC [C8A C13G C18A C23A C31G G44A], the self-cleavage amounted to 0.17.

As to GGCAGAGAUAAACAAAGCGUUGCAAAGUGGCUGUGGCUAGACUGCC [C8A C10A C15A G21U], the self-cleavage turned out to be 0.02.

In the case of GGCAGAGAUCAACACAGCGUGGCCAAGUGGCUGUGGCUAGACUGAC [C8A A24C C45A], the self-cleavage is 0.11.

GGCAGAGAUUAACACAGCUUGGCUAAGUGGCUGUGGCAGGACUGCC [C8A C10U G19U A24U U38A A39G]: the self-cleavage was 0.01.

For GGCAGAGAUGAACACAGCGUGGCAAAGUGUCUGUGGCUAGACUGCC [C8A C10G G30U], the self-cleavage was found to be 0.02.

As to GGCAGAGAUCAACACUGCGUGGCAAAGUGGGUGUGGCUAGAUUGCC [C8A A16U C31G C42U], the self-cleavage amounted to 0.14.

Turning to GGCAGAGAUCAACACAGCGUGGCUAAGUGGCUGUGGCAAGACAGCC [C8A A24U U38A U43A], the self-cleavage amounted to 0.09.

As to GGCAGAGAUCAACACGGCGUGGCAAAGUCGCUGUGGCUAGAUUGCC [C8A A16G G29C C42U], the self-cleavage amounted to 0.01.

With GGCAGAGAUCAACACCGCGUGGCAAAGUGGCUGUAGCUAGCCUGCC [C8A A16C G35A A41C], the self-cleavage came to 0.07.

GGCAGAGAUCAACACAGCGUGGCAGAGUGGCGGUGGCUAGGCUGCC [C8A A25G U32G A41G]: the self-cleavage came out at 0.08.

Regarding GGCAGAGAUCAACACAGCGUGGCAAGGUGGCUGUGGCUAGAUUGCC [C8A A26G C42U], the self-cleavage came to 0.09.

Regarding GGCAGAGAUUAACACAGCGUGGCAAAGUGGCGGAGGCUAGACAGCC [C8A C10U U32G U34A U43A], the self-cleavage was 0.04.

Turning to GGCAGAGAUCAACACAGCGUGGCUAAGUGCCUGUGGCUAGACUGCC [C8A A24U G30C], the self-cleavage stood at 0.13.

As for GGCAGAGAUCAACACGGCGUGGCAGAGUGGCUCUGGCUAGACUGCC [C8A A16G A25G G33C], the self-cleavage amounted to 0.09.

For GGCAGAGAUGAACACAGCGUGGCAAAGUGGCUGUGGCUAGACUCCC [C8A C10G G44C], the self-cleavage turned out to be 0.05.

For GGCAGAGAUCAAGACAGAGUGGCAAAAUGGCUGUGGCUAGACUGCA [C8A C13G C18A G27A C46A], the self-cleavage was 0.03.

As to GGCAGAGAUCAACACAGCGUGGCAACGUGGCUGUUGAUAGACUGCC [C8A A26C G35U C37A], the self-cleavage was determined as 0.02.

Turning to GGCAGAGAUAAACACAGCGUGGCAUAGUGGCUGUGGCUAGACUGCC [C8A C10A A25U], the self-cleavage was determined as 0.01.

Regarding GGCAGAGAUUAACACAGCGUGGCAAAGUGGCUUUGGCUAGACUGCC [C8A C10U G33U], the self-cleavage is 0.05.

As to GGCAGAGAUCAACACCGCGUGGCAAGGUGGCUGUGGCUAGACUGCC [C8A A16C A26G], the self-cleavage amounted to 0.06.

For the variant GGCAGAGAUCAACACAGCGUGGCAAAGUGGCUGUGGCUGUACUGCC [C8A A39G G40U], the self-cleavage is 0.

With GGCAGAGAUUAACACAGCGUGGAAAAGUGGCUGUGGCUAGACGGCC [C8A C10U C23A U43G], the self-cleavage was determined as 0.01.

In the case of GGCAGAGAUCAACACAGCGUGGCAAAGUGGCUGUGGCUUGACCGAU [C8A A39U U43C C45A C46U], the self-cleavage was found to be 0.5.

Consider GGCAGAGAUAAACACAGCGUGGCAAACUGGCUAUGGCUAGACUGCC [C8A C10A G27C G33A], for which the self-cleavage is 0.04.

Consider GGCAGAGAUGAAGACAACGUAGCAAAGUGGCUGUGGCUAGACUGCC [C8A C10G C13G G17A G21A], for which the self-cleavage stood at 0.06.

As to GGCAGAGAUUAACAGAGCGUGGAAAAGUGGCUGUGGCUAUACUGCA [C8A C10U C15G C23A G40U C46A], the self-cleavage turned out to be 0.03.

Consider GGCAGAGAUCAACACAGCGUGGCUAAGUGGGUGUGGGUAGACUGCC [C8A A24U C31G C37G], for which the self-cleavage stood at 0.04.

For the variant GGCAGAGAUCAACACAGCGUGGCAACGGGGCUGUGUCUAGACUGCC [C8A A26C U28G G36U], the self-cleavage is 0.14.

On to GGCAGAGAUCAACACAGCGUGGCCAAUUUGCUGUGGCUAGACUGCC [C8A A24C G27U G29U], for which the self-cleavage was 0.33.

On to GGCAGAGAUAACCACAGCGUGGCAAAGUGGCUGUGUCGAGACUGCC [C8A C10A A12C G36U U38G], for which the self-cleavage was found to be 0.01.

In the case of GGCAGAGAUAAACACAGCGUGGCCCAGUGGCUAUGGCUAGACUGCC [C8A C10A A24C A25C G33A], the self-cleavage amounted to 0.01.

Consider GGCAGAGAUCAACACUGCGUGGCAAAGUGGCUGUGGCUAGACAGCU [C8A A16U U43A C46U], for which the self-cleavage came out at 0.08.

Turning to GGCAGAGAUCAAAACAGCGUGGCAAAGUGGCUUUGGCUCGACUGCC [C8A C13A G33U A39C], the self-cleavage was 0.24.

In the case of GGCAGAGAUCAACACAGCGUGGCGGGGUUGCUGUGGCUAGACUGCC [C8A A24G A25G A26G G29U], the self-cleavage worked out at 0.01.

Turning to GGCAGAGAUUAACACAGCGUGGUAAUGUGGCUGUGGCUAGACUGCC [C8A C10U C23U A26U], the self-cleavage is 0.14.

As for GGCAGAGAUCAAAACAGCGUGGCAAAGUGGCUGUGGCAAGACUGCC [C8A C13A U38A], the self-cleavage worked out at 0.05.

For GGCAGAGAUCAACUCAGCGUGGCAAAGUGGCUGUGGCUAGACUCCC [C8A A14U G44C], the self-cleavage was found to be 0.45.

In the case of GGCAGAGAUCAACACCGCGCGGCAAAGUGGCUGUGGCUAGACUGCC [C8A A16C U20C], the self-cleavage is 0.11.

For the variant GGCAGAGAUAAACACAGGUUGGCAAAGUGGCUGUGGCUAGACUGCC [C8A C10A C18G G19U], the self-cleavage stood at 0.05.

As to GGCAGAGAUCAACACUGCGUGUGAAAGUGGCUGUGGCUAGACUGCC [C8A A16U G22U C23G], the self-cleavage was found to be 0.24.

As to GGCAGAGAUUAAAACAGCGUGGCAAAAUGGCUGGGGCCAGAUUGCC [C8A C10U C13A G27A U34G U38C C42U], the self-cleavage was 0.04.

As to GGCAGAGAUCAACACAGCGUGGCAAAGUGGCUGUGGCUAGCCUGCU [C8A A41C C46U], the self-cleavage was 0.11.

As for GGCAGAGAUCAACUCAGCGUGGCAAAGUGGCUGGGGCUAGACUGCC [C8A A14U U34G], the self-cleavage was 0.08.

GGCAGAGAUCAACUCAGCGUGGCAAAGUGGCUGAGGCUAGACUGCC [C8A A14U U34A]: the self-cleavage came out at 0.57.
